This passage reports self-cleavage results from the RNAGym collection of RNA variant scans (doi:10.7554/elife.90254).

Read counts are not given, so values of variants with three or more changes are uncertain.

The labels stand for the following.
B1: LINE1-mini (parent)
chain: GGCAGAGCUCAACACAGCGUGGCAAAGUGGCUGUGGCUAGACUGCC

In this data set the parent is B1. The data set can be described thus: self-cleavage, relative activity (ratio to wild type); higher = more cleavage; in vitro, sequencing; the parent is a self-cleaving ribozyme.
As to UGCAGAGCUCAAUACAGCGUGGCAAAGUGGCCGUGGCUGGACUGCC, the self-cleavage turned out to be 0.01.

Take GGCAGAGCUCAAUCCAGCGUGGCAAAGUGGCUGUGGCUAGACUGUC: the self-cleavage turned out to be 0.07.

As for GGCAAAGCUCAACACAGAGGGGUAAAGUGGAUGUGGCUAGACUGCC, the self-cleavage was found to be 0.02.

On to GGCAGAGCUCAACACACCGUGGCAAAGUGGCUGUGGCUAGACAUCC, for which the self-cleavage amounted to 0.06.

In the case of GGCAGAGCCCAACUCCGCGUGGCAAAUUGGCUGUGGAUAGACUGCC, the self-cleavage is 0.01.

Regarding GGAUGAGUUCAACACAGCGUGGCAAAGUGGCUGUGGCUAGACUGCC, the self-cleavage was 0.15.

For GGGAGAGCACAAAGUAGCCUGGCAAAGUGGCUGUGUCUAGUCUGCC, the self-cleavage worked out at 0.13.

For the variant CGCAGAGCUCAACACAGCGUGGCACAGUGCCUGUGGCUAGACUGCC, the self-cleavage stood at 0.41.

GGCAGAGCUCAACACAGCCUGGCAAAGUGUCUGUGGCUAGACUACC: the self-cleavage was 0.06.

GGCAAAGUUCAACACAGCGUGGCCAAGUGGUGGUGGCUAGACUGCC: the self-cleavage worked out at 0.02.

Consider GGCAUAGCUCAACACAGCGUGGCAAAGUGACUGUGCCUAGACUGCC, for which the self-cleavage stood at 0.05.

On to GGCAAACCUCAACACAGCGUGGCAAAGUGGCUGUGGCUAGACCGCC, for which the self-cleavage amounted to 0.07.

As to GCCAGAGCUCGACACAGCGUGGCAAAGUGACUGUGGCUAGACUGCC, the self-cleavage came to 0.01.

For GGCAGAGCUCAACACAGCGUGGCAAAGUGGCUAUGGCUAGAAUGAC, the self-cleavage was found to be 0.01.

As to GGCAGAGCUAAACACAGCGUGGCAGAGUGGCUGUGGCAAGACUGCC, the self-cleavage turned out to be 0.18.

In the case of GGAAGAGUUCAGCACAGCGUGGCAAAGUGGCUGUGGCUAGACUGCC, the self-cleavage amounted to 0.92.

In the case of GGCAGAGCUCAACACAGAGUUGCAAAGUCGCUGUGGCUAGACUGUA, the self-cleavage was 0.14.

As for GGCAGAGCUCAACACAGCCUUGCCAAGUGGCUGUGGCUAGACUGCC, the self-cleavage was determined as 0.27.

GGCAGUGCUCAACACAGCAUCGCAAAGGGGCUGUGGCUAGACUGCC: the self-cleavage amounted to 0.35.

In the case of GGCAGAUCUCAACACAGCGUGGUAAAGUGGCUGUGGCUCGACUGCC, the self-cleavage stood at 0.05.

GUCAGAGCUCAAAACAGCGUGGCAAAGUGGCUGUGGCUAGACUGCA: the self-cleavage came to 0.02.

GGCAGAUCUCAAAACCGCGUGGCAAAGUGGCUGUGGCUAGUCUUCC: the self-cleavage was 0.21.

For the variant GGCUGAGCUCAACACCGCGUGGCAAAGUGGCUGUUGCUCGAUUGCC, the self-cleavage came out at 0.07.

With GACAGAGCUAAACACAACGUGGUAAAGUGGCUGUGGCUAGACUGCC, the self-cleavage was found to be 0.06.

With GGCAGAGCUCAACACAGAGUGGCAAAGUGGCUGUGGUUAAACUGCC, the self-cleavage was determined as 0.01.

Consider GGUAGAGCUCCACACAGCAUGGCAAAGUGGCUGUGGCUAGCCUGCC, for which the self-cleavage came out at 0.

With GGCAGAGCUCAAAACAGCCUGGCAAAGUCGCUGUGGCUAGACUGCA, the self-cleavage came to 0.06.

Consider GGCUGAACUCAACACAGCUUGGCAAAGUGGCUGUGGCUGGACUGCC, for which the self-cleavage came to 0.04.

Take GGCAGAGCUCAAAACAGUGUGGCAAAGUGGCUAUGGCUAGACUGCC: the self-cleavage was 0.05.

Turning to CGCAGAGGUCACCACAACGUGGCAAAGUGGCUGUGGCUAGACUCCC, the self-cleavage came to 0.01.

As for GGCGGAGCUCGUCACAGCGUGGAAAAGUGGCUGUGGCUAGACUGAC, the self-cleavage was 0.01.

Regarding GGCAGAGCUUAACACAGCGUGGCAAAGUGAUUGUGGCUAGACUGCC, the self-cleavage turned out to be 0.19.

On to CGCAGAGCUCAACACAGCGUGGCACAGGGGCUGUGGCUAGACUGCC, for which the self-cleavage worked out at 0.09.

Consider GGAAGAGCACAACACAGCGUGGCAAACUGGCUGUGGCUAGACUGCC, for which the self-cleavage was 0.26.

As to GGCAGAGCUUAACUCAGCGUGGCAAAGUGGCUGUGGCUUGACUGCG, the self-cleavage turned out to be 0.02.

With GGCAGAGCUAACCACAGCGUAGCAAACGGGCUGUGGCUUGACUGCC, the self-cleavage is 0.

With GGCAGAGAGCAACACAGCGUGGCAUAGUGGCUGUGGCUAGACUGCC, the self-cleavage turned out to be 0.01.

Regarding GGCAGGGCUCAACACAGAGUGGCAAAGUGGCUGUGUCUUGACUGCC, the self-cleavage worked out at 0.06.

Turning to AACAGAGCUCAACACAGCGUGGCAAAGUGGCAGUGACUAGACUGCC, the self-cleavage amounted to 0.17.

On to GGCAGAGCUCAACACAGCAUGGCAGAGUGGAAGGGGCUAGAGUGCC, for which the self-cleavage turned out to be 0.03.

For GGCGGAGCUCAACACAACGUGGCAAAGAGGCUGUGGCCAGACCGCC, the self-cleavage was found to be 0.02.

Take GGCAGAUCUCAACACAGGGUGGCAAAGUGGCUAUGGCUAGACUGCC: the self-cleavage was 0.02.

Turning to GACAGAGGACAACACGGCGAGGCAAAGUGGAUGUGGCUAGACUGAC, the self-cleavage stood at 0.02.

For GGCAUAGCUCAAUACAGCGUGGCAAAGUGGGCGUGGCUAAACUGCA, the self-cleavage is 0.11.

GGCAGAGCUCAACACAGUGUGGCUAAGUGGGUGUGGCUAGACUUCC: the self-cleavage is 0.04.

GGCAGAGCUCAAGACAGCGUGGCAAAGUGGGUGUGGAUAGACUGCC: the self-cleavage is 0.02.

In the case of GGCAGAGCUCAACACAGCGUGGCAAAGUGGCUGGGUCGAGAAUUCC, the self-cleavage was found to be 0.01.

For the variant GGCAGAGCUCAACACAGCGUGACAAAGUGGCUGUGGCUGGACUGCU, the self-cleavage amounted to 0.09.

As for GACAGAGCUCAACACAGCGUGGCAACGUGGCUGUGGCCACACUGCC, the self-cleavage stood at 0.02.

Consider GGCAGAGCUCCACACAGCGUCGCAAAGUGGGUGUGGCUAGAGUGCC, for which the self-cleavage is 0.01.

Consider GGGAGAGCUCAACACAGCGUGGCAAAGUGGCUGUUGCUAGCGUGCC, for which the self-cleavage came out at 0.05.

Take GGCAGAGCUCAACACAGCGUGGCGAAGUGGAUUUAGCUAGACUGCC: the self-cleavage was found to be 0.03.

On to GGCAAAGCUCAACACAGGGGGGCAAAGUGGCUGUGGCUAGACUGCC, for which the self-cleavage came out at 0.21.

Turning to GACAGAGCACAACACAGCGUGGCAAAGUGGCUGUGGCGAGACUGCC, the self-cleavage was found to be 0.12.

As to GGCACACCUCAACACAGAGGGGCUAAGUGGCUGUGGCUAGACUGCC, the self-cleavage is 0.01.

As for GGCAGAGCUCUGCACAGCGUGGCAAAGUGGCUGUGGCUAGGCUGCC, the self-cleavage came out at 0.02.
